Structures are written as SMILES. Whole data set: some 110,000 compounds, median “z-score” near -0.1, cut for the highest 2% near 2. The list shows a part of the results. The source made the active and inactive calls.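 How the source made its calls: active means z-score in the third read window above 3 or below -3; inactive means the rest.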

The experiment concerns the target Metabotropic glutamate receptor 8 (Rattus norvegicus) (UniProt P70579). In words: rat mGluR8 modulators via GIRK flux, primary screen, cell-based, thallium flux, HTS (AID 488969). Particulars: HEK293 rat mGluR8, GIRK (G protein-gated inwardly rectifying potassium channel) thallium flux, FluoZin2; at 10 µM; stronger effect = higher value; submaximal glutamate (EC20) added with thallium.
Chain of UniProt P70579 (P70579 whole entry, looked up): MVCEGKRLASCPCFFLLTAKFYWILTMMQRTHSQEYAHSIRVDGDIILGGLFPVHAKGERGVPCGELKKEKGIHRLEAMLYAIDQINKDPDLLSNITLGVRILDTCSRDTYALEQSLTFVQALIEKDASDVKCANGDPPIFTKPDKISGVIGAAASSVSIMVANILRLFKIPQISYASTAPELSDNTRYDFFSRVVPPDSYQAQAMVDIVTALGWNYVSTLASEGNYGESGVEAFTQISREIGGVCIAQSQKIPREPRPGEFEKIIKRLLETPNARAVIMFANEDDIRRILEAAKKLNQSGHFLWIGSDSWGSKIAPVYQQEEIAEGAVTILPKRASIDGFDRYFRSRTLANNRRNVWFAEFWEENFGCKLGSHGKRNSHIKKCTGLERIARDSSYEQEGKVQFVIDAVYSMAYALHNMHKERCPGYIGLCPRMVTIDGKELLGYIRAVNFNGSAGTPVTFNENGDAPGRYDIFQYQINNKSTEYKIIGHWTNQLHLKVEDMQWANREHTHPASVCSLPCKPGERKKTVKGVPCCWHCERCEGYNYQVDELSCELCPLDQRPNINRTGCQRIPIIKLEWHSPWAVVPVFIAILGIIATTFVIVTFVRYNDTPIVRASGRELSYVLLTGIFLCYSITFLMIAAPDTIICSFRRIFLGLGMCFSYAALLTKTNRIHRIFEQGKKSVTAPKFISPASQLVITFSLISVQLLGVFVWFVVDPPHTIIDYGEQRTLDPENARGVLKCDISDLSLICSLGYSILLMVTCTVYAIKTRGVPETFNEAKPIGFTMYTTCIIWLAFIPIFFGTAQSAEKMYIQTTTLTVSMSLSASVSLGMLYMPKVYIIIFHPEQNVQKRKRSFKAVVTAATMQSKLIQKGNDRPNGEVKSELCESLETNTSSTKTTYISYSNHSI
Compound `CCOC(=O)CCc1cccc2c1CCC2=O` came in with a z-score of 1.03.
Regarding `Cc1cc(NC(=O)c2ccc3nc(C)sc3c2)no1`, the z-score was determined as 0.132.
`Cc1cc2nc(CCN(Cc3cccnc3)C(=S)Nc3ccc(F)cc3)[nH]c2cc1C` came in with a z-score of 0.0101.
In turn, `O=C(COc1ccc(-n2cnnn2)cc1)NCCc1ccc(F)cc1` showed a z-score of -0.496.
In turn, `O=C(O)C1CC(=O)N(c2ccc(OCc3ccc(Cl)cc3Cl)cc2)C1` (stereo unspecified) came in with a z-score of -0.228.
`O=[N+]([O-])c1ccc(Cl)c(/C=N/N2CCN(c3ccccc3)CC2)c1` had a z-score of -0.188.
As for `NC(=O)c1c(NC(=O)CSc2nnc(Cc3ccccc3)n2Cc2ccco2)sc2c1CCC2`, the z-score was -1.04.
For the compound `Cc1cc(NCc2ccco2)n2ncnc2n1`, the z-score is -0.39.
Turning to `O=C(NC1(C(F)(F)F)C(=O)Nc2c1c(=O)[nH]c(=O)n2-c1ccccc1)c1cccnc1` (stereo unspecified), the z-score was 0.783.
The result for `O=C(COc1ccccc1F)N/N=C1\CCCc2ccccc21` reads 0.596; that for `CC(C)NC(=O)C1CC=CCC1C(=O)O` (stereo unspecified), -0.0507.
The compound `Cc1ccc(-c2cc(C(F)(F)F)n3nc(C(=O)Nc4c(C)n(C)n(-c5ccccc5)c4=O)cc3n2)cc1` registered a z-score of -0.134.
As for `Cc1ccc(NC2=NC(=S)N(CC#N)C23CCCCC3)cc1`, the z-score was active: 3.98.
In turn, `CCC(C)(C(=O)NC1CCCCC1)N(CC1CCCO1)C(=O)c1ccccn1` (stereo unspecified) showed a z-score of 0.0424.
Consider `Cc1ccc(CCNC(=O)C2CCN(S(=O)(=O)c3cccc4nsnc34)CC2)cc1`, for which the z-score stood at 0.195.
Take `COc1ccc(C(=O)NCC(c2cccnc2)N2CCN(c3ccccc3OC)CC2)cc1OC` (stereo unspecified): the z-score is -0.178.
`COc1cc2c3c(c1OC)C1(C=CC(=O)C=C1)CC3N(C(C)=O)CC2` (stereo unspecified): the z-score is -0.282.
`C/C(CC(=O)Nc1ccc(Cl)c(C(F)(F)F)c1)=N\NC(=O)c1ccccc1O` yielded a z-score of -0.95.
As to `COc1cc(OC)cc(C(=O)N[C@H](C(=O)Nc2ccccc2N2CCOCC2)C(C)C)c1`, the z-score was -0.263.
With `CCCC(=O)Nc1ccc(Cl)c(NC(=S)NC(=O)c2cc3ccccc3o2)c1`, the z-score amounted to 0.00926.
On to `Cc1nn(-c2ccccc2)c(N2CCCC2)c1/C=N/NC(=S)Nc1ccccc1F`, for which the z-score is 2.42.
On to `CN(C)S(=O)(=O)c1ccc2c(c1)C(CC(=O)O)NC2=O` (stereo unspecified), for which the z-score is -0.0312.
The value for `COc1ccc(OCC(=O)NNC(=O)C(=O)Nc2ccc(C)cc2)cc1` was 2.73; that for `CCn1c(=O)c(-c2ccccc2)c(O)c2ccccc21` was 1.28.
Compound `c1ccc(OCc2nnc3sc(C4COc5ccccc5O4)nn23)cc1` (stereo unspecified) displayed a z-score of 0.711.
For `O=C(NCC1CCCO1)C(=O)NCC(c1ccco1)N1CCN(c2ccccc2)CC1` (stereo unspecified), the z-score turned out to be 0.0286.
With `O=C(CCn1nnc2ccccc2c1=O)NCC1CCC(C(=O)O)CC1` (stereo unspecified), the z-score is -1.42.
Compound `Cc1cc(/C=C(\C#N)c2nnc(N3CCOCC3)n2-c2ccccc2)c(C)n1-c1ccccc1` returned a z-score of -0.52.
Take `NC(=O)CN1CCN(c2nc(-c3ccc(F)cc3)cs2)CC1`: the z-score is -0.0103.
`O=C(OCc1ccccc1)C1CCCN1C(=O)c1cccs1` (stereo unspecified) gave a z-score of -0.219.
The compound `O=C(CNC(=O)c1cccs1)NCC(=O)OCc1ccc(Cl)cc1Cl` came in with a z-score of 0.112.
Consider `CCOc1ccc2c(c1)sc(N)[n+]2Cc1cc(C)cc2cccnc12`, for which the z-score was 0.483.
Consider `CC(=O)N1C(=O)CC(C)N(C(C)=O)c2ccc([N+](=O)[O-])cc21` (stereo unspecified), for which the z-score was -0.142.
The compound `COc1ccc(/C=C/C(=O)OCc2csc(-c3ccccc3)n2)cc1OC` displayed a z-score of -0.29.
Consider `CCCCC1(C)OC(=O)C(=Cc2ccc(N(CC)CC)cc2)C(=O)O1` (stereo unspecified), for which the z-score was -0.0786.
As to `CCOc1cc(C(=O)OCC(=O)Nc2cc(C)on2)cc(OCC)c1OCC`, the z-score turned out to be 0.309.
For `CCSc1nnc(NC(=O)C2CCN(S(=O)(=O)c3ccccc3C(F)(F)F)CC2)s1`, the z-score is -0.565.
The value for `CN(C)C(=O)c1ccc(NC(=O)c2cccnc2)cc1` was -0.188; that for `CN(C)N1C(N)=C(C#N)C(c2cccnc2)C2=C1CC(C)(C)CC2=O` (stereo unspecified) was -0.105.
Compound `CCN(CC)CCN1C(=O)C(=O)/C(=C(/O)c2ccc(OC(C)C)cc2)C1c1ccncc1` (stereo unspecified) gave a z-score of -0.15.
As for `O=C(c1ccc2ncsc2c1)N1CCN(c2ccc(O)cc2)CC1`, the z-score is -0.0382.
The result for `CCOC(=O)C(C(=O)OCC)N(C#N)c1nc(OC)nc(N(C)C)n1` reads -0.465.
With `Cc1ccccc1NC(=O)CN1C(=S)NC(C)(C)CC1C` (stereo unspecified), the z-score is -0.286.
`CS(=O)(=O)c1nc(-c2cccs2)cc(C(F)(F)F)n1` registered a z-score of -0.742.
`CCOC(=O)c1cc(NC(=O)c2cccnc2)cc(C(=O)OCC)c1`: the z-score is -0.81.
Regarding `N#C/C(=C/c1cn(-c2ccccc2)nc1-c1cccc(S(=O)(=O)N2CCOCC2)c1)C(=O)NCc1ccco1`, the z-score was -0.112.
For the compound `Cc1cc(C(=O)NNC(=S)NC(=O)/C=C/c2ccccc2Cl)n[nH]1`, the z-score was 0.295.
The result for `O=C(Nc1cccc(N=Cc2cc(Br)cc(Br)c2O)c1)c1ccco1` reads -2.03; that for `COc1ccc(NC(=O)CCn2nnc(-c3ccc(C)cc3)n2)cc1OC`, 0.352.
The value for `CCOC(=O)c1c(COC(=O)c2ccco2)nc2ccccc2[n+]1[O-]` was -0.168; that for `Cc1nc(N2CCOCC2)c(C#N)c(C)c1Br` was -0.151.
As to `CC(=O)NCCc1cc2cc(C)c(C)cc2[nH]c1=O`, the z-score turned out to be 0.386.
The result for `c1ccc(-n2cnc3cc(NCc4cccs4)ccc32)cc1` reads -0.219; that for `CC(=O)Nc1ccc(OCC(=O)NC(C)C(C)C)cc1` (stereo unspecified), -0.0668; that for `C=CCOC(=O)CCC(=O)Nc1cc(OC)nc(OC)n1`, -0.21.
Compound `Cc1ccc(-n2ncc3c(NNC(=O)Cc4ccccc4)ncnc32)cc1` returned a z-score of -0.145.
The compound `CCCC(C(=O)c1ccccc1)n1cncn1` (stereo unspecified) registered a z-score of -0.313.
Consider `O=C(O)CC1SC(=Nc2cccc(C(F)(F)F)c2)NC1=O` (stereo unspecified), for which the z-score was found to be 0.907.
In turn, `Cc1ccc2nc(SCc3nnc(-c4ccccc4)o3)[nH]c2c1` came in with a z-score of -0.555.
The value for `CC1CN(C(=O)/C=C/c2ccc3c(c2)OCO3)CC(C)O1` (stereo unspecified) was 0.427; that for `CCCN(CCC)C1=CC(=[N+]2CCCC2)CC(C)(C)C1` was -0.0292.
Regarding `Cc1cccc(NC(=O)c2ccc3ccccc3n2)c1C`, the z-score was -0.473.
Consider `COC(=O)CCn1[nH]c(=O)c2ccccc2c1=O`, for which the z-score was -0.0173.
In turn, `OCC(CO)(CO)N=Cc1c(O)ccc2ccccc12` displayed a z-score of 0.116.
Take `CC(C)CCN1C(=O)CCC1(C)C(=O)NC1CCCCCCC1` (stereo unspecified): the z-score was -0.383.
For `O=C(Nc1nc2c(s1)CCc1ccccc1-2)c1ccco1`, the z-score was -0.46.
The result for `COc1ccccc1CN1CC(C(=O)NCc2cccnc2)CC1=O` (stereo unspecified) reads -0.331.
Compound `Cc1nn(C)c(Oc2ccc(Cl)cc2)c1C(=O)Nc1ccc(F)cc1F` registered a z-score of -0.237.
Compound `O=C(N/N=C/C1CC=CCC1)c1cc2ccccc2cc1O` (stereo unspecified) showed a z-score of 1.78.
The result for `O=C(OCn1nnc2ccccc2c1=O)c1cccnc1` reads -0.0367; that for `CSc1nnc(-c2ccc(Cl)cc2Cl)o1`, -0.126; that for `COc1ccc(NC(=O)CO/N=C2\CCCc3nonc32)cc1`, 0.0532.
For the compound `Cc1cc2c(ncn2C)c(NS(=O)(=O)c2cc(Cl)ccc2Cl)c1C`, the z-score was found to be 0.0901.
Compound `O=C(NCc1ccco1)C1CCCN(S(=O)(=O)c2cnc[nH]2)C1` (stereo unspecified) returned a z-score of -0.0446.
On to `COc1ccccc1C(=O)ON=C1c2ccccc2-c2ccccc21`, for which the z-score is -0.416.
On to `COc1cccc(OCCSc2nnc3sc4ccccc4n23)c1`, for which the z-score was -1.13.
`Cc1ccc(-c2nnc(SCC(=O)CC(=O)Nc3ccccc3)n2C)cc1` returned a z-score of -0.148.
`O=C(O)CCC(=O)N1CCc2cc(S(=O)(=O)N(CCc3ccccc3)Cc3ccccc3)ccc21` had a z-score of -2.33.
`CCCCCn1c(N)c(-c2nc3ccccc3s2)c2c([N+](=O)[O-])nn(C)c(=O)c21` gave a z-score of 0.0202.
The result for `CCN(CC)CC(O)COc1ccccc1C(=O)CCc1ccccc1` (stereo unspecified) reads 0.394; that for `CCCN(CCC)CC(O)CN(c1cc([N+](=O)[O-])ccc1OC)S(=O)(=O)c1ccccc1` (stereo unspecified), -0.269; that for `COc1nnc(OC)c2ccccc12`, -0.152.
As to `CCCS(=O)(=O)N1CCN(C(=O)c2ccccc2F)CC1`, the z-score was 0.0901.
The result for `O=C(CSc1nnc(-c2ccccc2)c(-c2ccccc2)n1)N1CCc2ccccc21` reads -0.334; that for `CCCC(NS(=O)(=O)c1ccc(Br)cc1)C(=O)O` (stereo unspecified), 0.0226; that for `CN(C)c1ccc(/C=c2\sc3nc(-c4ccccc4)nn3c2=O)cc1`, 0.0153.
`O=C(NCc1ccco1)c1cccc(Nc2nc3ccc(Br)cc3[nH]2)c1`: the z-score was -0.536.
For the compound `CCOC(=O)N/N=C(/C)c1ccc([N+](=O)[O-])o1`, the z-score stood at 0.141.
`CC(C)(C)N(C(=O)Cn1nnc(-c2ccc(F)cc2)n1)C(C(=O)NC1CCCC1)c1ccncc1` (stereo unspecified) gave a z-score of -0.139.
Compound `N=c1n(CCN2CCCCC2)c2ccccc2n1CC(O)c1ccc(Cl)c(Cl)c1` (stereo unspecified) came in with a z-score of 0.264.
The value for `CCOn1c(=O)c(-c2cc3ccccc3o2)[n+]([O-])c2ccccc21` was -0.0501; that for `COc1cc(C2CC(=O)n3c(nc4ccccc43)S2)cc(OC)c1OC` (stereo unspecified) was -0.0551; that for `Cc1cc(C)c2nc3nc(C)cc(C)c3c(N)c2c1` was -0.702.
As to `CC1CCN(CCCNC(=O)c2ccc(CSCc3cccc(Cl)c3)o2)CC1`, the z-score was found to be 0.509.
`COc1ccc(CC(=O)NNC(=O)COc2ccc3ccccc3c2)cc1`: the z-score was found to be 0.022.
With `O=C(NCCNC(=O)C(c1ccccc1)c1ccccc1)c1ccco1`, the z-score was 0.54.
The value for `Clc1ccc(-c2cn3cccnc3n2)cc1` was -0.518; that for `O=C(COC(=O)CCc1c[nH]c2ccccc12)NCc1ccc(Cl)cc1` was -0.282; that for `O=C(Cn1nnc(-c2ccccc2Cl)n1)N1CCN(S(=O)(=O)c2ccc(Cl)cc2)CC1` was -0.336.
As to `CC(C)=C1C2CCC1C(C(=O)Nc1sc(C)c(-c3ccc(C(C)C)cc3)c1C(N)=O)C2C(=O)O` (stereo unspecified), the z-score is -0.64.
The value for `Cc1ccc(Nc2nc3nonc3nc2N(C)C)cc1` was -0.0276; that for `COC(=O)c1[nH]c2cc(OC)ccc2c1N` was -0.114; that for `CCOc1ccc(CC(=O)NNC(=S)NC2CCCCC2)cc1OCC` was -0.0724.
The value for `COc1ccc(-n2nc(C(=O)Nc3ccc(OC)c(OC)c3)c3c4ccccc4n(C)c3c2=O)cc1` was -0.169.
The compound `O=C(c1ccccc1)c1ccc(N2CCOCC2)c(F)c1` registered a z-score of -0.143.
Compound `CCc1nc(CNC(=O)c2cc(OC)c(OC)c(OC)c2)no1` had a z-score of 0.181.
`CN1CCN(S(=O)(=O)c2ccc(NC(=S)NC(=O)c3ccccc3)cc2)CC1` yielded a z-score of 0.103.
For the compound `O=S(=O)(NCC1CCN(S(=O)(=O)c2ccccc2)CC1)c1ccccc1`, the z-score is -0.207.
As to `CC(C)CCn1c(C(C)O)nc2ccccc21` (stereo unspecified), the z-score was -0.257.
Regarding `CNc1nc(Oc2ccccc2C(=O)OC)nc(SC)n1`, the z-score turned out to be 0.171.
For the compound `CC1=C(C(=O)OCc2ccccc2)C(c2ccc(N(C)C)cc2)NC(=O)N1` (stereo unspecified), the z-score was -1.51.

Values taken from PubChem BioAssay AID488969 (Vanderbilt High Throughput Screening Facility, 2010).
